PubChem BioAssay AID1345083 (National Center for Advancing Translational Sciences (NCATS), 2018)
About 6,200 (6.6%) of roughly 94,000 compounds were called active. The inconclusive results got no clear call from the source; some entries with a clear call stand among them for comparison. Calls follow the shape of the dose curve; as a rule, active = well fitted inhibition curve with a large enough effect; inconclusive = small, poorly fitted or top-dose-only effect; inactive = flat fitted curve, though single readings scatter. Where the call is inconclusive, the potency comes from a doubtful curve fit.

Assay: Cytotoxic Profiling in HEK 293 Cell Line of Diverse Libraries Using Quantitative High-Throughput Screening; also: nearly all actives have a fitted effect of over 60% in size
Conditions: HEK 293 viability, ATP luminescence (CellTiter-Glo), 48-72 h; series mostly up to 115 µM
In short: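 HEK 293 cells at 250 cells/well were exposed to compounds by pintool transfer for 48 or 72 hr at 37 degree Celsius, 5% CO2. Viability was read as ATP-coupled luminescence with CellTiter-Glo after 10 min at room temperature.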
Potency is read from the fitted curve at half-maximal effect; tags tell the direction and shape of the fitted curve.

| SMILES | Potency |
| --- | --- |
| O=C1Nc2ccccc2CC12CCN(Cc1ccccc1)C2 (configuration not stated) | inconclusive: 112 µM [inhibitor, partial curve, poor fit] |
| CN1CCCN(C[C@@H]2CN(Cc3cccc(CCN)c3)C[C@@H]2CO)CC1 | inactive |
| CCc1cccc(C)c1NC(=O)Cn1ccn2nc3c(c2c1=O)CCCCC3 | inconclusive: 89.1 µM [inhibitor, partial curve, poor fit] |
| COc1ccc(C(CC(=O)NCc2ccccc2)c2c[nH]c3ccccc23)cc1OC (configuration not stated) | inactive |
| O=C(c1cc2ccccc2[nH]1)N1CCC2(C1)NC(=O)N(Cc1ccccc1)C2=O (configuration not stated) | inconclusive: 89.1 µM [inhibitor, partial curve, poor fit] |
| CC(O)CN1CCC(=O)N(C/C=C/c2ccccc2)Cc2ccccc21 (configuration not stated) | inconclusive: 50.1 µM [inhibitor, partial curve, poor fit] |
| O=C(NC1CN(c2ccnc3ccnn23)C1)c1ccncc1 | inactive |
| Cc1ccc(Cl)cc1NC(=O)Cn1ccn2nc3c(c2c1=O)CCCCC3 | inconclusive: 79.4 µM [inhibitor, partial curve, poor fit] |
| CN1CCCN(C(=O)CCn2cnnn2)c2ccccc21 | inactive |
| CCc1ccc(C(=O)N2C[C@@H](CO)[C@H](c3nc(C)no3)C2)cc1 | inactive |
| Cc1[nH]c2ccccc2c1CN1CCc2nc(N3CCN(C)CC3)[nH]c(=O)c2CC1 | inconclusive: 89.1 µM [inhibitor, single point] |
| CC(C)c1ccc(CC(=O)N2CCCc3ncc(C(=O)NCc4cccnc4)cc32)cc1 | inconclusive: 100 µM [inhibitor, partial curve] |
| O[C@H]1CC[C@@H](Cc2cc(-c3ccc(F)cc3)on2)O[C@@H]1CNC1CCCCC1 | inconclusive: 39.8 µM [inhibitor, full curve, poor fit] |
| COCCNC(=O)c1nc(-c2c(C)cccc2C)c2ccccn12 | active: 35.5 µM |
| CN(Cc1cccc(-n2cccn2)c1)Cc1nc(-c2cccs2)no1 | active: 79.4 µM |
| COc1cc([C@@H]2c3cc4c(cc3[C@H](O)[C@@H](CO)[C@@H]2C(=O)N2CCCCC2)OCO4)cc(OC)c1OC | inconclusive: 50.1 µM [inhibitor, partial curve] |
| CC(C)(C)c1nnc(NC(=O)NCc2ccncc2)s1 | inactive |
| CCOc1ccccc1C1NC(=O)N(CC(=O)N(C)c2cccc(C)c2)C2=C1C(=O)OC2 (configuration not stated) | inactive |
| O=C(NC1CCCCC1)c1ccc2c(c1)N(C(=O)c1ccc(F)cc1)CC2 | inconclusive: 50.1 µM [inhibitor, single point] |
| COc1ccc(-c2cccc(C(=O)NCCCc3ccccc3)c2)nn1 | active: 79.4 µM |
| O=C(NC1CCCN(c2ccc3nnc(C4CC4)n3n2)C1)c1ccc(F)cc1 (configuration not stated) | inconclusive: 89.1 µM [inhibitor, single point] |
| O=C(CCCc1ccccc1)N1CCC([C@@H]2CNC[C@H]2CO)CC1 | inactive |
| O=C(c1ccc(Cl)cc1)N1CCC2(COc3ccncc3[S+](=O)([O-])N2)C1 (configuration not stated) | inactive |

| SMILES | Potency |
| --- | --- |
| CCn1ncc(N2CCCC(CC(=O)Nc3ccc(Cl)cc3)C2)cc1=O (configuration not stated) | inconclusive: 50.1 µM [inhibitor, partial curve, poor fit] |
| O=C(COc1ccc(F)cc1)N1CCC2(CC1)NC(=O)N(c1ccc(F)cc1)N2 | inconclusive: 39.8 µM [inhibitor, full curve] |
| Cc1ccc(NC(=O)N2C[C@@H](F)C[C@H]2C(=O)N2CCc3ccccc3C2)cc1C | inactive |
| O=C1CC2(CCN(Cc3ccc(C(F)(F)F)cc3)CC2)Oc2ccccc2N1 | active: 44.7 µM |
| Cc1nn(-c2ccccc2)c2c1C(C1CC1)N(C1CN(C(=O)c3ccccc3Cl)C1)C2=O (configuration not stated) | inconclusive: 39.8 µM [inhibitor, full curve, poor fit] |
| O=C(c1ccccc1F)N1CCC(C(=O)N2CCC(N3CCOC3=O)CC2)CC1 | inactive |
| CC1CCCN1C(=O)c1cn2cc(-c3cccc(Cl)c3)n(CC3CC3)c(=O)c2n1 (configuration not stated) | inconclusive: 7.94 µM [inhibitor, full curve, poor fit] |
| COc1ccccc1-c1ccc2c(C(=O)NCc3ccc(F)cc3)nn(C)c2n1 | inactive |
| CCc1ccc(NC(=O)c2cc(-c3ccc[nH]3)n[nH]2)cc1 | inconclusive: 89.1 µM [inhibitor, single point] |
| Cc1noc(C)c1-c1cnc2[nH]cc(CC(=O)N3CCOCC3)c2c1 | inconclusive: 63.1 µM [inhibitor, full curve] |
| Cc1noc(C)c1C(=O)N1Cc2ccccc2OC2(CCN(C(=O)N(C)C)CC2)C1 | inactive |
| Cc1ccc(-c2ncc(C(=O)Nc3ccccc3)c(-c3ccncc3)n2)cc1 | inconclusive: 25.1 µM [inhibitor, full curve, poor fit] |
| COc1nc2c(cc1CNC(=O)c1ccc(F)cc1)C(=O)N(C1CCCC1)C2 | inconclusive: 89.1 µM [inhibitor, single point] |
| COc1ccccc1Nc1ccnc(N2CCN(C(=O)C3CC3)CC2)n1 | inconclusive: 35.5 µM [inhibitor, full curve, poor fit] |
| O=C(Cc1c[nH]c2ncc(-c3cccc(Cl)c3)cc12)NCc1cccnc1 | active: 79.4 µM |
| COc1ccc(C(=O)N2CCCC2c2nc(CCOc3ccc(F)cc3)no2)cc1 (configuration not stated) | inconclusive: 89.1 µM [inhibitor, partial curve, poor fit] |
| CC1CCN(S(=O)(=O)N2CCC(C(=O)N3CCC(Cc4nncn4CC4CC4)CC3)CC2)CC1 | inactive |
| Cc1ccc(OCc2nc(C3CN(C(=O)c4ccc5[nH]ccc5c4)C3)no2)cc1 | inconclusive: 56.2 µM [inhibitor, partial curve, poor fit] |
| O=C(OCc1ccccc1)N1CCCN(c2cc(C3CC(O)C3)ncn2)CC1 (configuration not stated) | inconclusive: 8.91 µM [inhibitor, full curve] |
| O=C1CC(c2ccccc2)N(Cc2ccc(C(F)(F)F)cc2)CCCCCN1 (configuration not stated) | inconclusive: 44.7 µM [inhibitor, partial curve, poor fit] |
| Cc1nc(NC(=O)NC2CCN(Cc3ccccc3)CC2)nn1C | inactive |
| CC(C)CCNC(=O)c1cccc2c1CCN2S(=O)(=O)c1ccccc1F | inconclusive: 44.7 µM [inhibitor, partial curve, poor fit] |
| N#Cc1cccc(CN2CC[C@H](c3nc4ccccc4o3)C2)c1 | inconclusive: 112 µM [inhibitor, partial curve, poor fit] |

| SMILES | Potency |
| --- | --- |
| COc1cccc(CNC(=O)[C@@]23CCCC[C@H]2N(CCC(C)C)C(=O)CC3)c1OC | inconclusive: 89.1 µM [inhibitor, single point] |
| O=C(NCCc1ccc(Cl)cc1)C1CCN(c2nc3ncccc3o2)CC1 | inconclusive: 35.5 µM [inhibitor, full curve] |
| COCCn1cc2c3c(cccc31)CN(C(=O)c1ccc(C)c(C)c1)CC2 | inconclusive: 44.7 µM [inhibitor, partial curve, poor fit] |
| O=C1NC2(CCCN(C(=O)c3ccc4c(c3)OCO4)C2)COc2ccccc21 (configuration not stated) | active: 39.8 µM |
| O=C(NCc1cccs1)C1CCN(c2nccc(Nc3ccccc3F)n2)CC1 | inconclusive: 50.1 µM [inhibitor, partial curve, poor fit] |
| C=CCN1C[C@H]2COc3ccccc3[C@H]2N(C(=O)OCC(C)C)CCC1=O | inactive |
| O=C(c1c(F)cccc1Cl)N1C[C@@H](CO)[C@H](c2ccccn2)C1 | inconclusive: 89.1 µM [inhibitor, single point] |
| COC(=O)NC1CCN(c2nccc(Nc3ccc(OC)cc3)n2)CC1 | inconclusive: 28.2 µM [inhibitor, partial curve] |
| CCn1ccnc1CN1CCC2(CCC(=O)N(CCc3ccncc3)C2)CC1 | inactive |
| CCCc1noc(-c2cccn3c(CNC(=O)c4ccc5cc[nH]c5c4)nnc23)n1 | inconclusive: 50.1 µM [inhibitor, partial curve, poor fit] |
| CC1=C[C@@H](CNC(=O)CC(C)(C)CC(=O)O)[C@H](C(C)C)C[C@H]1Cc1nc2ccc(C)cc2[nH]1 | inactive |
| O=C(NC1CCCCCC1)c1nnn2cc(-c3ccccc3)[nH]c(=O)c12 | inconclusive: 89.1 µM [inhibitor, single point] |
| COc1ccc(Cl)cc1S(=O)(=O)N1CCC(c2c[nH]c3c(C)cccc23)CC1 | inconclusive: 17.8 µM [inhibitor, full curve, poor fit] |
| O=C(NCc1ccccc1)C1CN(C2CCCC2)C(=O)N1 (configuration not stated) | inactive |
| CC(C)(C)C1CCC2(CC1)NC(=O)N(CC(=O)Nc1cccc(C#N)c1)C2=O (configuration not stated) | inactive |
| CCNC(=O)C1CCN(C(=O)c2ccc3nc(-c4ccccc4)cn3c2)C1 (configuration not stated) | inactive |
| CCc1nc2nccc(-c3ccc(OC)cc3)n2n1 | inconclusive: 39.8 µM [inhibitor, full curve, poor fit] |
| CC1=NS(=O)(=O)N(Cc2ccccc2)C=C1C(=O)OCc1noc(-c2cccc(F)c2)n1 | inconclusive: 17.8 µM [inhibitor, full curve] |
| O=C(NC1CCN(c2ccnc3ccnn23)C1)c1ccccc1F (configuration not stated) | inconclusive: 22.4 µM [inhibitor, full curve, poor fit] |
| CCn1cc(S(=O)(=O)N2CCC3(CC2)CC(N(C)Cc2ccccc2)CCO3)cn1 (configuration not stated) | inconclusive: 89.1 µM [inhibitor, single point] |
| O=C(NCCOc1ccccc1)c1nc2c(o1)CCN(CC1CCCCC1)CC2 | active: 100 µM |
